Source: PubChem BioAssay AID1656 (Sanford-Burnham Center for Chemical Genomics, 2009)
This is one part of the list. The main result of the screen is listed elsewhere. These columns were measured beside it and carry no call. Most of these compounds were active or inconclusive in the main read-out, so they are no random draw.

test: inhibitors of hepatocyte lipid droplet formation, primary screen, imaging, high-throughput imaging, BODIPY stain (AID 1656); conditions: AML12 mouse hepatocytes, oleate lipid droplets, measured here: cell count, cytotoxicity flag, at 6.5 µM;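 further: cells counted across two imaged fields per well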
Procedure, shortened: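 Material – mouse AML12 hepatocyte cell line, fixed after treatment · Compound dosing – one dose, 6.5 µM compound · Times – compound with oleate, overnight · Measured by – Image-based BODIPY and DAPI two-channel analysis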

Row | Structure (SMILES) | cell count [cells]
1 | COC(=O)c1ccc(COc2ccc(F)cc2)o1 | 813
2 | CCOc1ccc2ccccc2c1/C=N/NC(=O)CNC(=O)C(c1ccccc1)c1ccccc1 | 690
3 | COc1cc(/C=C\C(=O)OCn2nnc3ccccc3c2=O)cc(OC)c1OC | 705
4 | Cn1nc([N+](=O)[O-])nc1Sc1nnc(-c2ccccc2)o1 | 111
5 | CCOC(=O)c1cc(NC(=O)N(C)C2CCCCC2)c(C)nc1C | 766
6 | COc1ccc(NC(=O)Cc2c(C)n(C(=O)c3ccc(Cl)cc3)c3ccc(OC)cc23)cc1 | 581
7 | CCCC(=O)Nc1c2c(nc3ccccc13)N(c1ccccc1)CC2 | 699
8 | COc1ccc(CCNC(=O)CN2C(=O)c3cccc4cccc(c34)C2=O)cc1OC | 649
9 | O=C1Nc2ccc(Cl)cc2C12Nc1ccccc1-c1nnc(SCc3ccccc3F)nc1O2 (stereo not given) | 276
10 | CCCCCC(=O)N=Nc1c(O)[nH]c2ccc([N+](=O)[O-])cc12 | 233
11 | CCCC(=NCCc1c(C)[nH]c2ccccc12)C1=C(O)CC(c2ccccc2)CC1=O (stereo not given) | 237
12 | COc1ccc(OC)c(/C=C/C(=O)N(C)CC(=O)Nc2cc(C)ccc2C)c1 | 741
13 | O=C(Nc1ccc([N+](=O)[O-])cn1)c1cc(-c2cccc(Cl)c2)nc2ccccc12 | 623
14 | Cc1cc(NC(=O)c2cccc3ccccc23)cc(C)c1OCC(=O)N1CCOCC1 | 817
15 | COc1cc(-c2noc(C)c2/C=C/c2cccc([N+](=O)[O-])c2)cc(OC)c1OC | 289
16 | OCC[C@@H]1C[C@H](O)[C@@H](O)[C@]2(Cc3ccccc3O2)O1 | 792
17 | CNC(=O)c1[nH]cnc1C(=O)Nc1ccccc1C | 79
18 | O=C1CC(/C=C/c2ccccc2)(C(=O)NC2CCCC2)N1c1ccc(S(=O)(=O)N2CCCC2)cc1 (stereo not given) | 627
19 | CCS(=O)(=O)N1CCN(c2ccc([N+](=O)[O-])c(NCc3cccnc3)c2)CC1 | 762
20 | COc1ccc(-c2ccc(=O)n(Cc3cccc([N+](=O)[O-])c3)n2)cc1 | 790
21 | CC(C)(C)C(=O)/C=c1\[nH]c(=O)/c(=C\c2ccc(F)cc2)s1 | 726
22 | Cc1cccc(NC(=O)c2cccc(OC(=S)N3CCOCC3)c2)c1 | 756
23 | Cc1ccc(CNC(=O)c2ccc(N3CCC4(CC3)CC(c3ccccc3)=NO4)c(NC(=O)c3ccc(Br)cc3)c2)cc1 | 785
24 | Cc1ccccc1Nc1nc(N)nc(CSc2nnnn2-c2ccccc2)n1 | 271
25 | CCOc1ccc(CCNC(=O)C(C)n2nc(C)n3c(cc4occc43)c2=O)cc1OCC (stereo not given) | 707

Row | Structure (SMILES) | cell count [cells]
26 | Cc1ccc(-c2[nH]c3ccccc3c2SCCNC(=O)c2ccc(S(=O)(=O)N3CCOCC3)cc2)cc1 | 723
27 | Cc1ccc(-n2nc3c(=O)n(CC(=O)NCCCc4ccccc4)nc(C)c3c2C)cc1 | 751
28 | COc1cc2c(cc1OC)CN(CC(=O)Nc1ccc(C)c(C)c1)CC2 | 829
29 | Cc1cc(C)c2nc(SCC(=O)N3CC(=O)Nc4ccccc43)c(C#N)cc2c1 | 301
30 | Nc1cc(Nc2ccccc2)c2nonc2c1[N+](=O)[O-] | 826
31 | COc1cc(SC)ccc1C(=O)OC(C)C(=O)Nc1ccc(NC(C)=O)cc1 (stereo not given) | 835
32 | O=C(COc1ccccc1-c1ccccc1)N/N=C/c1ccc2ccccc2c1 | 37
33 | CCOc1ccccc1NC(=O)N1CCC(C(=O)c2ccc(F)cc2)CC1 | 754
34 | CCOc1ccc(-n2c(SCC(=O)Nc3ccc(CC)cc3)nc3n[nH]c(C)c3c2=N)cc1 | 751
35 | C=C1C(=O)C=C2CN(C(=O)c3ccccc3)[C@@](Cc3ccc(F)cc3)(C(=O)OC)[C@@H]12 | 247
36 | COc1ccc(NC(=O)CSc2nc3ccccc3nc2N2CCCC2)cc1Cl | 748
37 | CCC1(c2ccccc2)NC(=O)N(CC(=O)N(C)Cc2c(F)cccc2Cl)C1=O (stereo not given) | 717
38 | COc1ccc(-c2nc3c(c4nnc(SC(C)C(=O)Nc5ccc(C)cc5)n24)COC(C)(C)C3)cc1 (stereo not given) | 655
39 | CN(C)/C=N/n1cnc2ccccc2c1=O | 509
40 | COC(=O)c1cc(C)sc1NC(=O)C1CC(=O)NN1Cc1ccccc1 (stereo not given) | 651
41 | CCN(CC)S(=O)(=O)c1ccc(S(=O)(=O)N(CC(=O)Nc2ccccc2)Cc2ccco2)cc1 | 738
42 | CCCOc1ccc(/C=N/Nc2ccccc2[N+](=O)[O-])c(O)c1 | 658
43 | CN(c1ccccc1)S(=O)(=O)c1cccc(NC(=O)CSc2nnc(N)s2)c1 | 292
44 | CCCOC(=O)c1ccc(NC(=O)CCOc2ccccc2)cc1 | 750
45 | Cc1c(C(=O)O)sc2nc3n(c(=O)c12)CCC(C)CC3 (stereo not given) | 716
46 | O=C(CCC(=O)c1ccc(F)cc1)Nc1cccc(S(=O)(=O)Nc2cccc(Cl)c2)c1 | 787
47 | Cc1sc(NC(=O)c2ccco2)c(C(Nc2ccccn2)c2ccccc2)c1C (stereo not given) | 148
48 | Cc1sc(NC(=O)Cc2ccc3c(c2)OCO3)nc1-c1ccc2c(c1)CCN2C(=O)c1ccccc1F | 624
49 | CC1CCN(C2=C(NS(=O)(=O)c3ccc(Br)cc3)C(=O)c3ccccc3C2=O)CC1 | 737
50 | CCOc1ccc(CCNC(=O)Cn2c(-c3nonc3N)nc3ccccc32)cc1OCC | 761

Row | Structure (SMILES) | cell count [cells]
51 | CCOc1ccc(CN(C)C(=O)CNC(=O)c2ccc(Br)o2)cc1OC | 759
52 | CCN1CCN(c2cc(C(C)C)nc3c(-c4ccccc4)c(C)nn23)CC1 | 695
53 | Cc1ccc(CN2CCN(c3ccccc3)CC2)o1 | 791
54 | CCOc1ccc(N2CC(C(=O)NCCc3ccc(F)cc3)CC2=O)cc1 (stereo not given) | 39
55 | COc1cc(C2C(C#N)=C(N)Oc3cc(N)ccc32)cc(OC)c1OC (stereo not given) | 223
56 | COc1ccccc1NS(=O)(=O)c1ccc(N/N=C/c2c(C)nn(-c3ccccc3)c2N2CCCC2)c([N+](=O)[O-])c1 | 636
57 | CSCCOC(=O)c1[nH]c2c(c1C)C(=O)CC(c1ccco1)C2 (stereo not given) | 168
58 | CCCN1C(=O)/C(=C\C=C2\N(CC)c3ccccc3C2(C)C)SC1=S | 689
59 | COc1ccc(N(C(=O)CCl)C(C(=O)NCCc2ccccc2)c2cccs2)cc1Cl (stereo not given) | 594
60 | COc1ccc(C(C#N)N2CCOCC2)cc1 (stereo not given) | 753
61 | Cc1ccc(NS(=O)(=O)c2ccc(-c3cnc(C4CC4)o3)cc2)c(C)c1 | 218
62 | OC(COc1ccc2cc(Br)ccc2c1)Cn1ccnc1 (stereo not given) | 803
63 | Cc1c(C(=O)N/N=C/c2ccc(N(C)C)cc2)[nH]c2ccc(Cl)cc12 | 234
64 | COCCCN=C1NN=C(c2cc(C)n(Cc3ccco3)c2C)CS1 | 37
65 | CCNc1nc(N)c(C(=O)c2ccc(Cl)s2)s1 | 781
66 | O=C(Nc1nc(-c2ccc(-c3ccccc3)cc2)cs1)C1CCCO1 (stereo not given) | 829
67 | COc1cc(C(=S)N2CCOCC2)cc(OC)c1OC(=O)c1ccccc1[N+](=O)[O-] | 793
68 | COCc1ccc(C(=O)NC2CCCc3c2cnn3-c2ccc(C)c(C)c2)o1 (stereo not given) | 824
69 | Cc1ccc(-c2ccc(/C=C3\SC(N4CCOCC4)=NC3=O)o2)cc1 | 147
70 | COc1ccc(NC(=O)CSc2nc3ccccc3nc2N2CCCCC2)cc1 | 723
71 | CCOC(=O)C1=C(C)n2c(s/c(=C3\C(=O)Nc4ccccc43)c2=O)=NC1c1ccc(OC)cc1 (stereo not given) | 685
72 | CCCC1(c2ccccc2)NC(=O)N(CC(=O)Nc2cc(C)ccc2OC)C1=O (stereo not given) | 803
73 | CC(C)(C)NC(=O)CSC(=Nc1ccccc1F)NC#N | 248
74 | CC(C)C(C)NC(=O)CSc1nc2scc(-c3ccco3)c2c(=O)n1-c1ccccc1 (stereo not given) | 752
75 | Cc1cccc(NC(=O)c2nc[nH]c2C(=O)NCC(=O)OC(C)(C)C)c1 | 674

Row | Structure (SMILES) | cell count [cells]
76 | CCN(CC)CCNC(CC(=O)Nc1ccc(Cl)cc1Cl)C(=O)O (stereo not given) | 721
77 | CCOC(=O)c1ccc(NC(=O)CSc2nc3c(c(=O)n2CC)SC(C)C3)cc1 (stereo not given) | 714
78 | O=C(c1ccccc1)c1cc([N+](=O)[O-])ccc1N1CCOCC1 | 267
79 | Cc1ccc(C(NC(=O)C2CCCCC2)c2c(O)ccc3ccccc23)cc1 (stereo not given) | 636
80 | Cc1ccc(-c2c(C(=O)NC(C)C)oc(=O)c3ccccc23)cc1 | 753
81 | COc1ccc2nc(N=Nc3ccc(O)c4ccccc34)sc2c1 | 559
82 | CCOc1ccc(CCNC(=O)COC(=O)/C=C/c2ccc(C)o2)cc1OCC | 801
83 | Cc1cccc(NC(=O)CSc2nnc(C)c(=O)n2N)c1 | 743
84 | O=[N+]([O-])c1sccc1CS(=O)(=O)c1ccccc1 | 737
85 | C/C=C(/C)C(=O)O[C@@H]1[C@H](OC(=O)C=C(C)C)c2c(ccc3ccc(=O)oc23)OC1(C)C | 761
86 | COc1ccc(/C=C(/NC(=O)c2cccs2)C(=O)Nc2ccc(C)cc2)cc1OC | 720
87 | CCCOc1ccc(-c2csc(NC(=O)CN3C(=O)CCC3=O)n2)cc1 | 652
88 | CN(C)S(=O)(=O)c1cccc(NC(=O)CC23CC4CC(CC(C4)C2)C3)c1 | 830
89 | C/C(=N\NC(=O)c1c(Cl)c(C)nn1C)c1ccc(NC(=O)C2CCC2)cc1 | 282
90 | Cc1ccc(-c2cc(-c3c(C)nn(C)c(=O)c3N)[nH]n2)cc1 | 755
91 | CCN(Cc1ccccc1)C(=O)C1CCN(C(=O)Nc2ccccc2)CC1 | 825
92 | COc1ccc2nc(N=Nc3c(O)ccc4ccccc34)sc2c1 | 559
93 | Cc1ccccc1C(=O)NC1CCN(Cc2nnnn2C2CCCC2)CC1 | 724
94 | CSc1ccccc1NC(=O)C1=CC(c2cccs2)=NS(=O)(=O)N1C | 757
95 | O=[N+]([O-])c1ccc(-[n+]2nc(-c3ccccc3)nn2-c2ccccc2)cc1 | 797
96 | Oc1[nH]c2ccccc2c1N=Nc1nc(Nc2ccccc2)nc(N2CCOCC2)n1 | 574
97 | CC(C)C(=O)N(Nc1nc2ccccc2s1)C(=O)C(C)C | 658
98 | Cc1c(/C=N\NC(=O)C2COc3ccccc3O2)c2ccccc2n1C (stereo not given) | 227
99 | COc1ccc(CCNC(=O)c2cc3c(F)cccc3s2)cc1OC | 798
100 | C#CCn1c(=NC(=O)c2sc3ccccc3c2Cl)sc2cc(S(N)(=O)=O)ccc21 | 264
